Over roughly 33,000 sequences, “E-score (-0.5 to 0.5)” has its median near -0.012; the highest 2% begin near 0.27. Some of the results follow.
Target: T1, Vhr1 (UniProt P40522)
T1 sequence: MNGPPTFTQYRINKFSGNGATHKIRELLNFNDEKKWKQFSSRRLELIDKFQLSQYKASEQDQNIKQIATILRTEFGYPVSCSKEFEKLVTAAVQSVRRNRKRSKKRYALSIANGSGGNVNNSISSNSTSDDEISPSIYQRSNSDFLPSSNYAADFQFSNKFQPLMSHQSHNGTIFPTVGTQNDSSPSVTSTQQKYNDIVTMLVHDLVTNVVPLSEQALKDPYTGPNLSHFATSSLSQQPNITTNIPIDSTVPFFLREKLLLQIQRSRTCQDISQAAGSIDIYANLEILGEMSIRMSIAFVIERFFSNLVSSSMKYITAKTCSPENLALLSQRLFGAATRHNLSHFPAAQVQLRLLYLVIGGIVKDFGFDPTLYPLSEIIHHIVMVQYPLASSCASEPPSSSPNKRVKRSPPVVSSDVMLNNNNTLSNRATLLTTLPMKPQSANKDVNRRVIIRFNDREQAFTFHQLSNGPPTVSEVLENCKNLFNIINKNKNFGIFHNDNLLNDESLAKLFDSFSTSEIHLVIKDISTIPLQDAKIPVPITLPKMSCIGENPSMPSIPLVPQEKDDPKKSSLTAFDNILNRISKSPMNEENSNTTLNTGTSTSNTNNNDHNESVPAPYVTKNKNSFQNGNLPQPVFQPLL
Assay: PBM E-score (8-mer binding enrichment) (E-score (-0.5 to 0.5)); higher = stronger / more preferred TF binding; most listed sequences are background and not binding sites
Conditions: protein concentration: 200 nM; construct: GST-full length
Outline: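 Each ungapped eight-base word and its reverse complement, pooled, received an E-score from the Universal PBM Analysis Suite. Underlying scans, normalised with masliner, recorded fluorescent anti-GST bound to GST-tagged yeast transcription factors. These were applied at about 100-200 nM to universal all-10-mer Agilent arrays double-stranded by primer extension.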

Sequence	PBM E-score
AAACTCCA	0.0649
ATACAATC	0.0532
AGTGCAGA	-0.109
AACAAGTT	0.0211
ACTCCTCA	0.0273
AGGTCGTA	0.107
AGTACAGC	-0.0455
AAAACCGC	-0.0447
AGATTTGC	0.0715
ATCCATTA	-0.00519
CGCATCCG	-0.00566
AACGCATG	0.14
ATACATCG	0.242
ACGACTAG	0.162
ACGGGGCG	0.0736
CATGGCGC	0.0885
CACGACGC	-0.0679
CGCCCGCC	0.17
CACTCGAC	0.0633
GGGGTATA	-0.0282
CGGCATTC	-0.139
GGACAAAA	-0.132

Sequence	PBM E-score
ATGCACCC	0.0555
AGCCCACA	0.0814
ACATGGAC	0.109
CTGAGAAC	0.137
TCATTTCA	0.048
CAAATGTC	-0.183
ATTGGCGC	-0.135
CTGGGAAG	-0.00594
AAAGGGCC	-0.189
ACGATAAG	-0.141
AATTCTAC	-0.173
AAAAAGAG	-0.13
CGGGACGA	-0.0597
ACTTAAGC	-0.18
CCAGGGCC	-0.21
GGAATGGA	-0.0073
AGACCGAG	-0.0568
GCGAATAA	0.0367
AAGTCCAG	-0.23
CTTCTGAA	-0.0295
ACATGGCG	0.152
ATAGGTAG	-0.0067

Sequence	PBM E-score
AAGTTAAA	-0.287
CCGCGACG	-0.0352
GCTTGCAA	0.0649
TAATCTCA	0.077
ACGGGCTA	-0.146
TACGCCTA	-0.0313
AGAGTTTG	0.0245
GGGTGTCA	0.0145
CCCCGACC	0.0464
CGGCAACA	0.0667
AATAATGC	0.0521
CGTCACCA	-0.036
AAACCTGC	-0.144
TACGAAAA	-0.187
ACTAAAAC	-0.0433
AGCTGTCC	-0.239
TAGAGCGA	-0.0223
ACACGCCA	0.163
ACTCCCGC	0.0912
ATGTAAAC	0.0482
CGGAGCAA	-0.0852
CGGATCTA	-0.0646

Sequence	PBM E-score
CTCTTACA	-0.136
ACAGATAT	0.137
AAACTAAG	-0.00679
ACGTTTCG	0.0198
CATCAAAA	0.0172
GAATAGGA	-0.0181
ATCATCAT	0.226
GTTCGCCA	-0.0665
GCCCGCAA	0.12
AAAGGACT	-0.105
TAAAAGTA	-0.215
AATCAAGA	0.0407
ATGGCCCA	-0.171
CCCCTCCC	0.171
CGTTACGA	0.0568
GGTTCTGA	0.129
GCATGCGA	0.159
GCCGTGAC	0.234
TGATAAAA	-0.095
GATTTCAA	-0.249

Source: the supplement of paper PMC3334620
